# Reference: the supplement of paper PMC4166925
# ± gives the standard deviation of the averaged measurements. The full ranking holds about 33,000 sequences; the median of “E-score (dimensionless, -0.5 to 0.5)” is about -0.046, and the highest 2% start at about 0.36. The list shows a part of the results.
# Test system: T1, SpTbr T-box DNA-binding domain (GST fusion)
# T1 sequence: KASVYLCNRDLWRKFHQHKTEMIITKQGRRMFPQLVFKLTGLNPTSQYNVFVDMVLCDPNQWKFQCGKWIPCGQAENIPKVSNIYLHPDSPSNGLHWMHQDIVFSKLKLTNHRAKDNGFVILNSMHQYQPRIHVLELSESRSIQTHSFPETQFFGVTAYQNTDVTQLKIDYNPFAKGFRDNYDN
# Experiment: PBM E-score of 8-mer (E-score (dimensionless, -0.5 to 0.5)); Tbr is Tbrain of the sea star Patiria miniata (Pm) or the sea urchin Strongylocentrotus purpuratus (Sp); higher = stronger binding preference; most listed sequences are background and not binding sites
# Conditions: the construct has about 5 more residues each side
# Outline: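 Primer extension turned Universal Agilent oligonucleotide arrays double-stranded. They were incubated with 200 nM protein in PBS (pH 7.5); the protein was a GST-fused Tbr T-box DNA-binding domain expressed in BL21 E. coli at 20 °C and purified on glutathione. Every ungapped 8-mer was scored from the scanned, quantified probe intensities, and the Universal PBM Analysis Suite gave each an enrichment E-score averaged over duplicate arrays.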
row,Sequence,PBM E-score of 8-mer
1,TAAACTAA,-0.0791 ± 0.025
2,CGAAGAAA,0.0153 ± 0.038
3,AGTGATCC,-0.191 ± 0.056
4,CCGGGAGA,0.0264 ± 0.034
5,CCCCAGTA,-0.118 ± 0.0053
6,GTCTTAAC,-0.0678 ± 0.003
7,CAATTTAC,0.0958 ± 0.01
8,ATAGGCTC,-0.167 ± 0.02
9,CCAAGAGC,-0.28 ± 0.06
10,CCGAAACG,-0.0396 ± 0.06
11,CGTAGTGC,-0.0779 ± 0.017
12,GATATGCC,-0.036 ± 0.044
13,CGAGAACA,0.251 ± 0.0091
14,CCGTGGTC,-0.0142 ± 0.021
15,GGAAGCCA,-0.144 ± 0.073
16,CCGCACCA,0.186 ± 0.032
17,CCGAGCAA,-0.342 ± 0.027
18,CAGATAGA,-0.131 ± 0.025
19,AATGTACG,-0.0841 ± 0.011
20,AAGACAAT,-0.0151 ± 0.026
21,CCTTCTAC,-0.101 ± 0.061
22,AGTATAGA,-0.196 ± 0.054

row,Sequence,PBM E-score of 8-mer
1,ACAGTTCC,0.102 ± 0.057
2,CGCGGCCG,-0.0257 ± 0.089
3,GTGCTTCA,-0.0552 ± 0.0097
4,ACGCCCCA,0.167 ± 0.026
5,CTTCTTGC,0.0112 ± 0.02
6,GGGAAGCA,-0.108 ± 0.014
7,CGCCAGCC,0.0479 ± 0.008
8,ACACTGGC,0.0145 ± 0.013
9,CGGCGGAC,-0.136 ± 0.046
10,CGTTCCAG,-0.116 ± 0.065
11,TACAGAGA,-0.0976 ± 0.025
12,GCAACTGC,0.06396 ± 0.00043
13,CCAGAGAA,-0.0442 ± 0.074
14,ACTTGGGG,0.0655 ± 0.11
15,AATGCCCA,-0.142 ± 0.056
16,ATCTCGGC,-0.162 ± 0.079
17,GCCCATTA,-0.2784 ± 0.00071
18,CAAAAAAC,0.0928 ± 0.037
19,GACAAACC,0.014 ± 0.012
20,ACAATAAG,-0.0246 ± 0.0034
21,CGTAGGAG,-0.1355 ± 0.0004
22,ACTGGTCC,-0.343 ± 0.053

row,Sequence,PBM E-score of 8-mer
1,CACGTCAG,0.268 ± 0.047
2,ATAACTAA,-0.0433 ± 0.019
3,ATGTTTAC,0.0746 ± 0.011
4,AAACCTTG,-0.17 ± 0.045
5,TCCATCAA,-0.0498 ± 0.014
6,GGAGGTGA,0.374 ± 0.035
7,GATGCTTA,-0.168 ± 0.0076
8,AGTCAACC,-0.0257 ± 0.009
9,GGCTGCAC,0.103 ± 0.013
10,GGCATTAA,-0.191 ± 0.03
11,AAGTATCT,-0.282 ± 0.0068
12,GCGCAGAA,-0.0239 ± 0.0019
13,CGCTCAAC,-0.114 ± 0.091
14,ACATTCGA,-0.164 ± 0.0077
15,ATAATAAT,-0.154 ± 0.035
16,AGCAGGAT,-0.172 ± 0.1
17,ACCCCCGC,0.0847 ± 0.022
18,GAACAGAC,-0.0406 ± 0.00095
19,GTTGGGAA,0.0689 ± 0.011
20,GGGATATA,0.00746 ± 7.1e-05
21,AGCCGGGC,-0.259 ± 0.063
22,GAGCAGGC,-0.0942 ± 0.062

row,Sequence,PBM E-score of 8-mer
1,AGCCCCGA,-0.183 ± 0.0085
2,ATCATAAG,-0.0133 ± 0.12
3,TAGGCCAA,-0.279 ± 0.019
4,GTGGGTAA,-0.02 ± 0.036
5,ACTGAAGT,-0.084 ± 0.015
6,GACAGGCA,-0.0464 ± 0.052
7,ATTCGATC,-0.0772 ± 0.017
8,AAAGTATT,-0.174 ± 0.07
9,CGGTGTAA,0.216 ± 0.014
10,CACGCGCC,0.299 ± 0.037
11,GGTATAGA,-0.183 ± 0.074
12,GTCAGAGA,-0.0734 ± 0.08
13,TTATGGAA,-0.127 ± 0.062
14,ATGCAAAC,0.0363 ± 0.037
15,ATTGACGA,0.145 ± 0.003
16,CAGCCTGA,-0.134 ± 0.018
17,CCCATAAA,-0.142 ± 0.04
18,ACTTTTAC,0.0186 ± 0.12
19,AGCACGGC,-0.0477 ± 0.075
20,ACAGGAGT,-0.0315 ± 0.053
